Measurements taken from the supplement of paper PMC9174493.
Structures can show the parent of a compound that is named as a salt. Some of the results follow. Single values of this set are uncertain. Values with irradiation are relative to irradiated vehicle.

What was measured:
A549-Dual [1] = assay: NF-kB reporter (SEAP) activity, viability-corrected, relative to vehicle (fold change vs vehicle); higher = more activation of STING-IRF / NF-kB immune response reporter; settings: 10 µM
A549-Dual [2] = assay: ISRE reporter (Lucia luciferase) activity, viability-corrected, relative to vehicle (fold change vs vehicle); higher = more activation of STING-IRF / NF-kB immune response reporter; settings: 10 µM
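Wherever NF-kB reporter (SEAP) activity, viability-corrected, relative to vehicle is given: viability correction based on the alamar blue assay, with concentrations leaving 10% survival or less dropped.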

Compound	NF-kB reporter (A549-Dual [1]; irradiation: 8 Gy/4 fr)	NF-kB reporter (A549-Dual [1]; irradiation: none)	ISRE reporter (A549-Dual [2]; irradiation: 8 Gy/4 fr)	ISRE reporter (A549-Dual [2]; irradiation: none)
C=C1CC23CCC4C(C)(C(=O)OC5OC(CO)C(O)C(O)C5O)CCCC4(C)C2CCC1(OC1OC(CO)C(O)C(O)C1OC1OC(CO)C(O)C(O)C1O)C3 (stereo not given) [Stevioside]	1.1	0.839	1	0.695
O=C1/C(=C2\Nc3ccc(S(=O)(=O)[O-])cc3C2=O)Nc2ccc(S(=O)(=O)[O-])cc21.[Na+].[Na+] [Indigo carmine]	0.984	0.747	0.955	0.561
CC(=O)Nc1c(I)c(NC(C)=O)c(I)c(C(=O)O)c1I [Diatrizoic acid]	0.946	0.759	0.828	0.412
Clc1ccc(C(Cn2ccnc2)OCc2csc3c(Cl)cccc23)c(Cl)c1.O=[N+]([O-])O (stereo not given) [Sertaconazole nitrate]	0.471	0.715	0.418	0.59
COc1cc(O)c(C(=O)c2ccccc2)cc1S(=O)(=O)O [Sulisobenzone]	1.02	0.693	0.869	0.438
CCOC(=O)c1ccc(N)cc1.Cl [Benzocaine hydrochloride]	0.603	0.617	0.596	0.583
CCCC1CC(C(=O)NC(C(C)Cl)C2OC(SC)C(O)C(O)C2O)N(C)C1.Cl.O (stereo not given) [Clindamycin alcoholate]	0.752	0.801	0.878	0.729
CC1=C(C(=O)O)N2C(=O)C(NC(=O)C(N)C3=CCC=CC3)C2SC1.O (stereo not given) [Cephradine monohydrate]	0.774	1.08	0.705	0.827
Cc1nccn1CCC(C(N)=O)(c1ccccc1)c1ccccc1 [Imidafenacin]	0.473	0.743	0.482	0.594
CS(=O)(=O)O.Cc1ccc(N(CC2=NCCN2)c2cccc(O)c2)cc1 [Phentolamine Mesylate]	0.838	0.965	0.805	0.93
CNC1(C)C2CCC(C2)C1(C)C.Cl (stereo not given) [Mecamylamine Hydrochloride]	1.56	2.17	0.643	2.31
C=C(CC)C(=O)c1ccc(OCC(=O)[O-])c(Cl)c1Cl.[Na+] [Ethacrynate Sodium]	1.42	1.04	1.45	1.32
CCN(CC)CCOC(=O)C1(C2CCCCC2)CCCCC1.Cl [Dicyclomine HCl]	0.953	0.879	0.715	1.02
Cc1c(O)c(=O)ccn1C [Deferiprone]	1.44	0.825	1.35	0.853
CC(C)N=c1cc2n(-c3ccc(Cl)cc3)c3ccccc3nc-2cc1Nc1ccc(Cl)cc1 [Clofazimine]	0.887	1.03	0.965	2.3
C=CC1(C)CC(OC(=O)CSCCN(CC)CC)C2(C)C(C)CCC3(CCC(=O)C32)C(C)C1O (stereo not given) [Tiamulin]	0.782	0.963	0.881	1.17
OCCN1CCN(CCCN2c3ccccc3Sc3ccc(Cl)cc32)CC1 [Perphenazine]	0.491	0.839	0.511	0.914
Cc1ccc(Sc2ccccc2N2CCNCC2)c(C)c1 [Vortioxetine]	0.598	0.697	0.318	0.863
CCC1OC(=O)CC(O)C(C)C(OC2OC(C)C(O)C(N(C)C)C2O)C(CCN2CC(C)CC(C)C2)CC(C)C(=O)/C=C/C(C)=C/C1COC1OC(C)C(O)C(OC)C1OC (stereo not given) [Tilmicosin]	0.855	0.976	1.04	0.952
O=C1CN(/N=C/c2ccc([N+](=O)[O-])o2)C(=O)N1 [Nitrofurantoin]	0.85	0.928	0.858	0.772
CN1CC2CC1CN2c1cc2c(cc1F)c(=O)c(C(=O)O)cn2C1CC1.CS(=O)(=O)O (stereo not given) [Danofloxacin Mesylate]	1.1	1.17	0.799	1.13
CCN(CC)CCOCCOC(=O)C(CC)(CC)c1ccccc1.O=C(O)CC(O)(CC(=O)O)C(=O)O [Oxeladin Citrate]	1.25	0.823	1.27	0.912
C=C1CCC2OC2(C)CCC2C1CC2(C)C (stereo not given) [Caryophyllene oxide]	0.703	0.707	0.618	0.537
CCOC(=O)CC(O)(CC(=O)OCC)C(=O)OCC [Triethyl citrate]	1.03	0.976	0.95	0.67
CN1C(=O)OC(C)(C)C1=O [Trimethadione]	1.19	1.08	1.12	0.711

Compound	NF-kB reporter (A549-Dual [1]; irradiation: 8 Gy/4 fr)	NF-kB reporter (A549-Dual [1]; irradiation: none)	ISRE reporter (A549-Dual [2]; irradiation: 8 Gy/4 fr)	ISRE reporter (A549-Dual [2]; irradiation: none)
C1CCN2CC3CC(CN4CCCCC34)C2C1.O.O.O.O.O.O=S(=O)(O)O (single isomer, unassigned; (-)) [(-)-Sparteine Sulfate]	1.04	0.833	0.932	0.684
CN(C)CCc1c[nH]c2ccc(CC3COC(=O)N3)cc12 (stereo not given) [Zolmitriptan]	0.876	0.84	1.04	0.947
CNC1C(OC2C(OC3C(O)C(O)C(NC(=N)N)C(O)C3NC(=N)N)OC(C)C2(O)CO)OC(CO)C(O)C1O.CNC1C(OC2C(OC3C(O)C(O)C(NC(=N)N)C(O)C3NC(=N)N)OC(C)C2(O)CO)OC(CO)C(O)C1O.O=S(=O)(O)O.O=S(=O)(O)O.O=S(=O)(O)O (stereo not given) [Dihydrostreptomycin sulfate]	0.797	0.84	0.907	1.02
Cl.O.O=C(O)c1cn(C2CC2)c2cc(N3CCNCC3)c(F)cc2c1=O [Ciprofloxacin hydrochloride hydrate]	0.918	0.871	0.811	0.667
Cl.O=C1c2cccc3c2C(CCC3)CN1C1CN2CCC1CC2 (stereo not given) [Palonosetron HCl]	0.462	0.713	0.487	0.86
Cc1ncc(CO)c(CO)c1O [Pyridoxine]	0.933	0.867	1.04	0.838
Nc1ncnc2c1ncn2C1OC(COP(=O)(O)OP(=O)(O)O)C(O)C1O (stereo not given)	1.02	0.664	0.955	0.703
CNCCC(Oc1ccccc1C)c1ccccc1.Cl (stereo not given) [Atomoxetine HCl]	0.91	0.981	1.2	1.14
COc1cc2c(cc1OC)C1Cc3ccc(OC)c(OC)c3CN1CC2.Cl (stereo not given) [Tetrahydropalmatine hydrochloride]	0.75	1.32	0.749	0.953
CN(C)CCC=C1c2ccccc2C=Cc2ccccc21.Cl [Cyclobenzaprine HCl]	0.755	1.63	0.828	1.2
CC(C)(c1ccc(O)cc1)c1ccc(O)cc1 [Bisphenol A]	0.709	0.636	0.871	0.806
CC(=O)OC1CC2(C)C(CC(O)C3C4(C)CCC(O)C(C)C4CCC32C)/C1=C(\CCC=C(C)C)C(=O)[O-].[Na+] (stereo not given) [Fusidate Sodium]	0.953	1.01	0.986	0.967
CC(CCc1ccccc1)NCC(O)c1ccc(O)c(C(N)=O)c1.Cl (stereo not given) [Labetalol HCl]	1.45	1.26	1.43	1
N=C(N)NCCN1CCCCCCC1.O=S(=O)(O)O [Guanethidine Monosulfate]	0.766	0.807	0.748	0.73
O=c1oc2ccccc2c(O)c1Cc1c(O)c2ccccc2oc1=O [Dicoumarol]	1.48	1.05	1.4	1.01
O=P(O)(O)OC(Cn1cncn1)(Cn1cncn1)c1ccc(F)cc1F [Fosfluconazole]	0.674	0.792	0.716	0.754
Cl.N=C(N)NC(=O)c1nc(Cl)c(N)nc1N [Amiloride HCl]	0.844	0.806	0.833	0.996
Cn1c(=O)c2c(ncn2CC2OCCO2)n(C)c1=O [Doxofylline]	0.573	0.605	0.704	0.611
NS(=O)(=O)Cc1noc2ccccc12 [Zonisamide]	0.766	0.7	0.769	0.62
CC(=O)Nc1c(I)c(NC(C)=O)c(I)c(C(=O)[O-])c1I.[Na+] [Diatrizoate sodium]	0.827	0.536	0.732	0.485
NC(=O)N1c2ccccc2CC(=O)c2ccccc21 [Oxcarbazepine]	0.784	0.764	0.67	0.63
C[N+](C)(C)C[C@H](O)CC(=O)[O-] [L-carnitine]	0.829	0.897	0.723	0.792
CN(C)CCCN1c2ccccc2Sc2ccc(Cl)cc21 [Chlorpromazine]	1.1	1.24	1.01	1.89
OCC1OC(Oc2ccc(O)cc2)C(O)C(O)C1O (stereo not given) [Arbutin]	0.92	1	0.93	0.995
O=C([O-])CN(CCN(CC(=O)[O-])CC(=O)O)CC(=O)[O-].[Na+].[Na+].[Na+] [Edetate Trisodium]	1.1	0.586	1.24	0.842
